The list shows a part of the results.
Each sequence was assayed against T1, OsWOX13 (Oryza sativa, UniProt Q5QMM3 1-267) (assay: protein-binding microarray (RPBM); PBS, 2% BSA, 51.3 ng/ul salmon testes DNA, 50 uM zinc acetate, 200 nM TF, 25 C, 1 h; high values mean tight binding). Conditions: protein: recombinant; tags: N-terminal polyhistidine and DsRed monomer fusion (pET32a); label: CyDye5-dUTP incorporated in the synthesized complementary strand; 3' TTTTT single-stranded linker to array surface; dsDNA, one strand shown.
T1 sequence: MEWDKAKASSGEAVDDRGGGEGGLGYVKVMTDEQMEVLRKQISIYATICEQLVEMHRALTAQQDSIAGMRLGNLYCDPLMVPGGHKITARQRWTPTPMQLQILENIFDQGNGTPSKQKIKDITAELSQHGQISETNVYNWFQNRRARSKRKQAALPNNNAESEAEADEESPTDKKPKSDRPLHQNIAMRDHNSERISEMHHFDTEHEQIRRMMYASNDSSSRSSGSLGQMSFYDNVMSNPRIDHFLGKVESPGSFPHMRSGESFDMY
Procedure, shortened: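 Binding signal is defined as the fluorescence intensity of each feature in arbitrary units, read on an Axon 4000B scanner. Transcription factors with N-terminal polyhistidine and DsRed fusions came from E. coli BL21-CodonPlus and were purified on Ni–NTA. They were incubated at 200 nM for 1 h at 25 °C on a custom Agilent array that had been made double-stranded with Cy5-dUTP, with 50 µM zinc acetate present, and the array was washed.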

| Sequence | binding signal |
| --- | --- |
| ACGGATAGATAGGAAAACTTACTCCTGCTGCGCATGCACACGGAGTCACCTAGTGCAG | 8880 fluorescence intensity (a.u.) |
| CGATTATGATTATGTTATACGGTTATACCATTGGTTGCAACGGAGTCACCTAGTGCAG | 24800 fluorescence intensity (a.u.) |
| GTTATTTTAATTTATTTTCCTGGTTGTAATACCATGTTAGCGGAGTCACCTAGTGCAG | 10700 fluorescence intensity (a.u.) |
| GAGAAACGCCATTGATTGGTGGAGAGAGAGAGAGAGAGAACGGAGTCACCTAGTGCAG | 16200 fluorescence intensity (a.u.) |
| TACTCATATAATTTTAATGGGACACGCTGATCCCGTTCGTCGGAGTCACCTAGTGCAG | 5040 fluorescence intensity (a.u.) |
| GCCTATTCCATTAATTGACCGGGATTGCCAAGTGTCCCCGCGGAGTCACCTAGTGCAG | 28800 fluorescence intensity (a.u.) |
| TATAATTGAAATGTAATTATATTGTAACTACATTTAACTGCGGAGTCACCTAGTGCAG | 44400 fluorescence intensity (a.u.) |
| CTTGCAATGATTGCGATGAAGCCTGGAATGTATCTGGCTGCGGAGTCACCTAGTGCAG | 22300 fluorescence intensity (a.u.) |
| TCTCATTGACAAGCCAACAAACGCACAGTGTGACAAGCTCCGGAGTCACCTAGTGCAG | 3600 fluorescence intensity (a.u.) |
| TAAATTTAATAAACAGCTGGAAAGATTTCCTCTCCAAAATCGGAGTCACCTAGTGCAG | 4480 fluorescence intensity (a.u.) |
| TGTGGTTTATTTTATGATTAGAAAATTTTAAGCACCACTTCGGAGTCACCTAGTGCAG | 8180 fluorescence intensity (a.u.) |
| CTTTAGACTAAATTATATTAGCCTTGACCCTGATAATTCACGGAGTCACCTAGTGCAG | 8190 fluorescence intensity (a.u.) |
| CAGCGTAATTAATTGACCTCGGTCTCCTTGCTCCCCTATCCGGAGTCACCTAGTGCAG | 38300 fluorescence intensity (a.u.) |
| TGCAGTTAATTAATTACTTGCATTTAATTATACGCCTCGCCGGAGTCACCTAGTGCAG | 35600 fluorescence intensity (a.u.) |
| ACATTTTGATTTGCACTTGCAATTCCTACCTGAACTTGAGCGGAGTCACCTAGTGCAG | 28400 fluorescence intensity (a.u.) |
| TGTTTAATGGACTGGGCCAAAATACAAATATATAAATTGCCGGAGTCACCTAGTGCAG | 7430 fluorescence intensity (a.u.) |
| CCAAAGTATTTACAGATTGACCGCAATATACAATTGATCTCGGAGTCACCTAGTGCAG | 3810 fluorescence intensity (a.u.) |
| GAAGATGATTACCTTGGCGGCGCTGGCGACGATGCACCTCCGGAGTCACCTAGTGCAG | 12300 fluorescence intensity (a.u.) |
| GAACAGGTAATTTAAAATTGATGGAGTTCATAGGATGTCACGGAGTCACCTAGTGCAG | 24200 fluorescence intensity (a.u.) |
| TATATATATATATATAAACAGATGAGTACTACAGTACCAACGGAGTCACCTAGTGCAG | 3880 fluorescence intensity (a.u.) |
| TACTCATTGATTGCAGGTTCCTTGAAATTTACTGGTAGAGCGGAGTCACCTAGTGCAG | 33500 fluorescence intensity (a.u.) |

| Sequence | binding signal |
| --- | --- |
| AATGATAACATGAAAATTTCATAGTAATACGAAGATGTTCCGGAGTCACCTAGTGCAG | 6230 fluorescence intensity (a.u.) |
| TGGATGAATGAATGGATATATTGACGTATATATACGAGTCCGGAGTCACCTAGTGCAG | 7940 fluorescence intensity (a.u.) |
| CCACGGGATTGCAGAGATTGCAATCGAATCAAACAACCAACGGAGTCACCTAGTGCAG | 5620 fluorescence intensity (a.u.) |
| CTCATTTCAAATTAACTGTAGATGTTGATTAGGTTTATTTCGGAGTCACCTAGTGCAG | 16900 fluorescence intensity (a.u.) |
| TGGTTCTGATTTTATTTCCATCGTAATTTATTTTCTAATGCGGAGTCACCTAGTGCAG | 7830 fluorescence intensity (a.u.) |
| GGTGATGATTGCCGGAGTTGGAGCTGCGACTTGAAGGACACGGAGTCACCTAGTGCAG | 30700 fluorescence intensity (a.u.) |
| CATTAATTGGCCGTTGAAATTTTCTCGCCGCGAACGAAGACGGAGTCACCTAGTGCAG | 34500 fluorescence intensity (a.u.) |
| GTAAAATTGATGTTGCTAGATTTATTATTAAAATACTATCCGGAGTCACCTAGTGCAG | 21300 fluorescence intensity (a.u.) |
| TTGGATGTGATGTGATGTAATGGAAAGTTAAAAGTTTGGACGGAGTCACCTAGTGCAG | 4270 fluorescence intensity (a.u.) |
| AAAATTAACCTAACCATGGATTAAATATCTAATGATGGGTCGGAGTCACCTAGTGCAG | 6560 fluorescence intensity (a.u.) |
| TCGAATTATCATCCGTTTGTGTTCTTGTCAGTTACTCCACCGGAGTCACCTAGTGCAG | 3220 fluorescence intensity (a.u.) |
| GCATTTGATTGTGCAAGTTGGGTTTACAGCTGCACTTATACGGAGTCACCTAGTGCAG | 4470 fluorescence intensity (a.u.) |
| TCTAAATTCATCCTCAATAATTGATTCTTTTGGGAGGAGTCGGAGTCACCTAGTGCAG | 20000 fluorescence intensity (a.u.) |
| CCTTGACTTGAGGATGAAATTGACTATCTAACCTTCAGATCGGAGTCACCTAGTGCAG | 9580 fluorescence intensity (a.u.) |
| ACCAGACAGTGATTTTATATTTTAGATTTTGATGTAGGATCGGAGTCACCTAGTGCAG | 7710 fluorescence intensity (a.u.) |
| ACCGGATTAGTAATTCCCCGCCGCCGTGCCGAGCCCGATTCGGAGTCACCTAGTGCAG | 11700 fluorescence intensity (a.u.) |
| ATTGAAAATTTGATTGAAATTGAAATGATGCGATGAAAATCGGAGTCACCTAGTGCAG | 30700 fluorescence intensity (a.u.) |
| AATTAACCTGATAACTAACTTAACAACCTCTGCGCGCCCCCGGAGTCACCTAGTGCAG | 3380 fluorescence intensity (a.u.) |
| AGTTATTCTTCCTGATTGATTTCGCAGTTGCTGGAAGAAACGGAGTCACCTAGTGCAG | 21400 fluorescence intensity (a.u.) |
| TACTAAATTGTAAATTTATTATTTCGGTATAATAACTTGGCGGAGTCACCTAGTGCAG | 38900 fluorescence intensity (a.u.) |
| GGTAAATTTCTCCATCCAATACGTATCTCTGTTTGATAAACGGAGTCACCTAGTGCAG | 3810 fluorescence intensity (a.u.) |
